Source: the supplement of paper PMC3334620
Over roughly 33,000 sequences, “E-score (-0.5 to 0.5)” has its median near -0.035; the highest 2% begin near 0.34. This is one part of the list.

molecular target: T1, Mot3 (UniProt P54785); test: PBM E-score (8-mer binding enrichment) (E-score (-0.5 to 0.5)); higher = stronger / more preferred TF binding; most listed sequences are background and not binding sites; details: protein concentration: 200 nM; construct: GST-full length
T1 sequence: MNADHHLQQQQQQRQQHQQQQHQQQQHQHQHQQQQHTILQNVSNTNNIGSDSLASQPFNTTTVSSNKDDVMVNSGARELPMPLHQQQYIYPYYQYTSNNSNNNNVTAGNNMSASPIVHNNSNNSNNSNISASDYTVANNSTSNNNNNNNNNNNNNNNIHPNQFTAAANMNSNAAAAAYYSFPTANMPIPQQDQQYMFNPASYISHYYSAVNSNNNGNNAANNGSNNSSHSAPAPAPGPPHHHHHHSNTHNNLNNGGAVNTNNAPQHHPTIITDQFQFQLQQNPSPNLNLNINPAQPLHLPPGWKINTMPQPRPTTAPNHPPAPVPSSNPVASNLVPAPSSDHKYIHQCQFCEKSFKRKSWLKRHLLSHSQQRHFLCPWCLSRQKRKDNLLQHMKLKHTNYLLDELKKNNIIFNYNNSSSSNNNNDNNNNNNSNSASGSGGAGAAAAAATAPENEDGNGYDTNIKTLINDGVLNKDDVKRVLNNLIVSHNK
Summary of the method: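 Detection of bound protein used fluorescent anti-GST, with scans normalised by masliner. The proteins were GST-tagged yeast transcription factors applied at about 100-200 nM to universal all-10-mer Agilent arrays made double-stranded by primer extension. Each ungapped eight-base word, pooled with its reverse complement, was scored with an E-score from the Universal PBM Analysis Suite.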

Row | Sequence | PBM E-score
1 | CGATATGA | -0.105
2 | CCCATCGA | -0.114
3 | ACAGGTTC | 0.299
4 | AAGTAGGA | 0.2
5 | CGATACCG | -0.298
6 | AGGACGTA | 0.0784
7 | GGTCGGAA | -0.119
8 | AATGTCAA | 0.0969
9 | AGACAACC | 0.0305
10 | CAGTTTTC | -0.101
11 | AGCCTGAG | -0.116
12 | AAAACAGG | 0.191
13 | CAGTCAAC | -0.164
14 | ATGCACAG | -0.125
15 | AATGCTGG | 0.0617
16 | ACGGGGCA | -0.23
17 | AGACTCGC | -0.114
18 | GCTGAAAC | 0.165
19 | AGTTGCTG | -0.103
20 | CATACTCC | -0.00023
21 | AAGATACG | -0.0326
22 | CGCATAAG | -0.103
23 | CCCGCGGA | -0.194
24 | ATTCTGGG | -0.0973
25 | AAACCAAG | 0.271

Row | Sequence | PBM E-score
26 | ATGAGTCG | -0.0573
27 | GACAGCTA | -0.0884
28 | ACCCCCGT | -0.165
29 | CCTTACGC | 0.306
30 | CTCCTCCC | -0.277
31 | AATTGCTA | -0.083
32 | AATTACTA | 0.154
33 | CATATTAC | 0.232
34 | CCAATGAC | -0.125
35 | CGGCCACC | -0.23
36 | TAACCCCA | -0.141
37 | GCATCGAC | -0.0232
38 | TCCTAAAA | 0.21
39 | CACCAGAA | 0.0304
40 | AGGACACA | 0.215
41 | GATGACGA | 0.104
42 | CTTCCGAA | -0.271
43 | ATCAGCTG | -0.0375
44 | CCAGGCGA | -0.155
45 | GATCGTTA | -0.106
46 | ACACGGCT | 0.243
47 | AATTGCTG | 0.0479
48 | ATACCAAC | 0.0993
49 | GTCAGACA | -0.114
50 | ATGCGGCC | -0.123

Row | Sequence | PBM E-score
51 | GCCATGAA | -0.191
52 | CATACGCG | 0.155
53 | CCCTTGCA | -0.161
54 | GGAGACGA | -0.0123
55 | ATATTTAG | 0.139
56 | AATTTCGC | 0.0694
57 | ATACGGCG | 0.00604
58 | ATAGCATC | -0.164
59 | GATCCGGA | -0.18
60 | CTAGAAGA | -0.142
61 | ACCGGCCC | -0.264
62 | AAGCTCCA | -0.149
63 | TTAGGAAA | 0.351
64 | CATTCCAA | -0.0608
65 | CGCCAGAA | -0.272
66 | CATAAAGC | -0.00766
67 | ATACACAG | 0.332
68 | GGGTTATA | 0.0228
69 | CGGGTATC | -0.118
70 | GCGGTCGA | 0.144
71 | TGGGGCAA | -0.158
72 | AGGAATAC | 0.156
73 | AGGAAATA | 0.368
74 | ACACTCAG | -0.0296
75 | CTTCACCA | -0.119

Row | Sequence | PBM E-score
76 | CTCTAGGA | -0.145
77 | CTGAAATC | -0.0501
78 | AAAAAAGG | 0.134
79 | AATTGTAT | 0.0986
80 | ATTTTGGA | 0.0681
81 | CACTTCCC | -0.239
82 | ACAGTGTC | 0.00692
83 | TGTCAAAA | 0.241
84 | GAAAATCA | 0.128
85 | CAGGACAA | 0.0258
86 | AGTCATGC | -0.22
87 | CCCACGTA | 0.105
88 | CCGTACGA | -0.125
89 | CCGGCCGC | -0.242
90 | AGGAACCA | 0.419
91 | CCACCCCC | -0.309
92 | CTTGTATA | 0.17
93 | CAAGAAAG | 0.17
94 | CCAATCAC | -0.0609
95 | TCCCGGCA | -0.283
96 | TCTAACAA | -0.00776
97 | ATGTGCTG | 0.147
98 | AGTACTGC | -0.16
99 | GTCTGTGA | -0.06
100 | AGGAATCA | 0.104

Row | Sequence | PBM E-score
101 | AGCCCTGA | -0.214
102 | GTTGTGTA | 0.373
103 | GAGTCGTA | -0.226
104 | ACTGAATC | -0.0804
105 | GGCCCGTA | -0.0246
106 | AATTCTAT | 0.129
107 | CCTTTGCG | 0.173
108 | CACACGGC | 0.0643
109 | CAGTATAG | -0.00777
110 | AAAGATGA | 0.174
111 | ACTAAATC | -0.0252
112 | CGCGCGCC | -0.161
113 | CAAAACGC | 0.0743
114 | AGATTGAG | 0.0525
115 | GGAAGTGA | -0.156
116 | CAATCACC | 0.0191
117 | AAGATGAC | 0.0906
118 | GCCTGCGA | 0.35
119 | CGCTTTAC | 0.199
120 | GCCAAGGA | -0.0855
121 | AACGGGGA | -0.072
122 | CGCGGACA | 0.0461
123 | CGTGTTTA | 0.346
124 | GCGGGAGA | -0.305
125 | CTGTTAGC | -0.143

Row | Sequence | PBM E-score
126 | TCATCCAA | 0.0783
127 | AATGAACT | 0.0803
128 | GCAATTGA | 0.257
129 | AAGGATAT | -0.0885
130 | GAGTCAAC | -0.0553
131 | AAGAAGGA | 0.173
132 | TGAGTGCA | -0.0539
133 | ACACCGCA | 0.0279
134 | CCCGCAAG | -0.222
135 | AATTAGGA | 0.131
136 | AACACCCG | 0.0915
137 | AATTTTTA | 0.114
138 | CCAAGGCG | -0.0205
139 | ACAGAGGC | 0.00619
140 | ATAAGTAC | 0.0764
141 | GACACCGC | -0.237
142 | CCGCAGAC | -0.223
143 | CGTTTTTC | -0.0115
144 | ATTAAGGG | -0.014
145 | ATCGTACA | 0.125
146 | AGGTCTCA | -0.0024
147 | AGGAAGAG | -0.0959
148 | CATCCTAG | -0.157
149 | ACACTCTA | 0.0368
150 | CGGAATAC | 0.165

Row | Sequence | PBM E-score
151 | AAATGTCA | 0.0143
152 | GAGAGTGA | -0.176
153 | ACGGAGAG | -0.127
154 | TCCTCACA | -0.088
155 | TACTAAAA | -0.0243
156 | ACCCGTCT | -0.246
157 | CTTGAAAC | 0.0394
158 | GCGTGTCA | 0.305
159 | GCCCGGGC | -0.036
160 | ACTCCAGA | -0.0745
161 | CACTCTTA | 0.11
162 | GACACCTC | -0.081
163 | ATGCGCAC | -0.108
164 | CTTCGACA | 0.12
165 | AGAACGAT | 0.154
166 | ACTAGTAG | 0.114
167 | AGGGCGAA | -0.259
168 | AAAGCGTG | 0.0569
169 | CAAACGAC | 0.0854
170 | CCTGAGGC | 0.13
171 | CCAGCCCA | -0.18
172 | ATTTTTTA | 0.22
173 | AATGTATG | 0.199
174 | AGCCCGCG | -0.213
175 | CCGAACGA | -0.179

Row | Sequence | PBM E-score
176 | GGGAAACA | -0.036
177 | CATCCATG | 0.157
178 | GACCGGAA | -0.265
179 | TGTCGGAA | -0.00633
180 | GATCGCCA | -0.175
181 | ACAATTTC | 0.0299
182 | CGGGGTAA | 0.0225
183 | CATTCGGA | 0.0282
184 | CCATCCAA | 0.019
185 | ATCTGCCG | 0.00708
186 | TCTCGCCA | -0.211
187 | GACCACGC | -0.0952
188 | CCACACGC | 0.0699
189 | CTGGTAGA | -0.0386
190 | CGTTGTTC | 0.0899
191 | CAAGTAAA | 0.246
192 | ACCTGGTC | -0.109
193 | CGTGCTAC | -0.0628
194 | ACAGAGGT | 0.0763
195 | AGCTTCCA | -0.306
196 | CTTAGAGC | -0.0265
197 | CGTAACAC | 0.197
198 | ACAGGCCT | 0.00325
199 | CGTTGAAC | 0.0522
200 | GGGTGGTA | -0.0515

Row | Sequence | PBM E-score
201 | AGCGATAA | -0.0844
202 | ATATGGTG | -0.0371
203 | CTCTGTAA | 0.133
204 | GCTTCCGA | -0.0756
205 | GTGAATTA | 0.178
206 | ACCCCCAG | -0.249
207 | GACCAGTA | -0.0991
208 | CCAACTTC | -0.236
209 | CCAACAGA | -0.142
210 | CCTACGCG | 0.0958
211 | AGTGCTCG | -0.182
212 | GCTAGGAA | 0.0868
213 | CATTCTAG | 0.0956
214 | ATCTCGAG | -0.191
215 | GGGCTAAA | -0.189
216 | AGCGGGGA | -0.142
217 | CGGGTTTA | -0.0764
218 | ACACCGCT | -0.00171
219 | CACCTACC | 0.039
